The values below come from the supplement of paper PMC10037445.

Each structure is given as a SMILES string. “And” between values parts separate entries of the source, which are not always exact repeats. Identical values can stand only once. ± gives the standard deviation of the averaged measurements. Whole data set: some 2,900 compounds, median “IRF Lucia reporter activity, fold change vs agonist alone” near 0.9, cut for the highest 2% near 2.8. Some of the results follow.

In assay [1] the test system is RAW-Dual. As to the kind of experiment: IRF Lucia reporter activity, fold change vs agonist alone; cytotoxicity flag (confluency mask): not cytotoxic; higher = enhanced IRF activity. In outline:
(§1)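 Supernatant from RAW-Dual macrophages was read after 20 hours for IRF by QuantiLuc luminescence and for NF-κB by QuantiBlue absorbance at 620 nm. The cells (50,000 cells/well in DMEM, 384-well plates, 37 °C, 5% CO2) had received 50 nL of library stock by pin tool and, 1 h later, a PRR agonist. Reporter activity is expressed relative to agonist-alone wells as fold change, and wells were flagged cytotoxic if IncuCyte confluency was under 70% of agonist controls in both mask sets.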

Assay [2] concerns RAW-Dual. Nature of the assay: IRF Lucia reporter activity, fold change vs agonist alone; higher = enhanced IRF activity. The note with it: library stock concentration (final ~1000-fold dilution): 10 mM, agonist: MPLA (TLR4) […]. The gist of the method:
as §1

The subject of assay [3] is RAW-Dual. As to the kind of experiment: IRF Lucia reporter activity, fold change vs agonist alone; cytotoxicity flag (confluency mask): cytotoxic (confluency <70% of control); higher = enhanced IRF activity. In outline: as §1
Setting [4] is: agonist: 3'3'-cGAMP (STING) 10 ug/mL.
Where [5] appears, read: cytotoxicity flag (confluency mask): not cytotoxic.

Consider `CC(=O)OC1CC/C(C)=C/CC/C(C)=C/CC2(C(C)C)CCC1(C)O2` (stereo not given) (library stock concentration (final ~1000-fold dilution): 10 mM), for which the results for the “IRF Lucia reporter activity” value in assay [1] (setting [4]) and in assay [1] (agonist: LPS (TLR4) 0.1 ug/mL) were 0.818 ± 0.25 and 0.744 ± 0.15, respectively.

Take `COc1cc2ncnc(Nc3ccc(Oc4ccccc4)cc3C)c2cc1OC.Cl` (library stock concentration (final ~1000-fold dilution): 10 mM): the “IRF Lucia reporter activity” value in assay [1] (setting [4]) amounted to 0.418; in assay [1] (agonist: LPS (TLR4) 0.1 ug/mL), 1.49.

As to `Cc1cccc(-c2n[nH]cc2-c2ccc3ncccc3n2)n1`, in assay [2] (setting [5]), the “IRF Lucia reporter activity” value worked out at 0.367.

Turning to `Cc1cccc(-c2n[nH]cc2-c2ccc3ncccc3n2)n1` (library stock concentration (final ~1000-fold dilution): 10 mM), the “IRF Lucia reporter activity” value in assay [1] (setting [4]) was 0.154; in assay [1] (agonist: LPS (TLR4) 0.1 ug/mL) it was 0.327.

Turning to `Cc1cc(-c2ccnc3cc(O)ccc23)ccc1O` (library stock concentration (final ~1000-fold dilution): .1 mM), the “IRF Lucia reporter activity” value in assay [1] (setting [4]) and in assay [1] (agonist: LPS (TLR4) 0.1 ug/mL) was 1.02 in each case.

Take `CN1CCC(c2c(O)cc(O)c3c(=O)cc(-c4ccccc4Cl)oc23)C1CO.Cl` (stereo not given) (library stock concentration (final ~1000-fold dilution): 10 mM): the entries for the “IRF Lucia reporter activity” value in assay [3] (setting [4]) and in assay [3] (agonist: LPS (TLR4) 0.1 ug/mL) were 0.00862 and 0.0242, respectively.

For the molecule `Cc1ccc(-c2c(-c3nn(C)c4ncnc(N5CCC(N6CCCCC6)C5)c34)cnn2C)cc1` (stereo not given), the “IRF Lucia reporter activity” value in assay [2] (setting [5]) amounted to 1.1.

Take `Cc1ccc(-c2c(-c3nn(C)c4ncnc(N5CCC(N6CCCCC6)C5)c34)cnn2C)cc1` (stereo not given) (library stock concentration (final ~1000-fold dilution): 10 mM): the “IRF Lucia reporter activity” value in assay [1] (setting [4]) is 1.09; in assay [1] (agonist: LPS (TLR4) 0.1 ug/mL), 0.958.

Regarding `COc1cc2c(cc1OC)-c1cc3ccc4c(c3c[n+]1CC2)OCO4` (library stock concentration (final ~1000-fold dilution): 10 mM), the “IRF Lucia reporter activity” value in assay [1] (setting [4]) is 1.01 and 0.78; in assay [1] (agonist: LPS (TLR4) 0.1 ug/mL) it was 1.19 and 1.06.

Turning to `Cc1cn(C2CC(O)C(CO)O2)c(=O)[nH]c1=O` (stereo not given) (library stock concentration (final ~1000-fold dilution): 10 mM), the “IRF Lucia reporter activity” value in assay [1] (setting [4]) is 1.07; in assay [1] (agonist: LPS (TLR4) 0.1 ug/mL), 0.877.

Take `Cc1cn(C2CC(O)C(CO)O2)c(=O)[nH]c1=O` (stereo not given): the “IRF Lucia reporter activity” value in assay [2] (setting [5]) came out at 0.937.

As for `NOCC(=O)O`, the “IRF Lucia reporter activity” value in assay [2] (setting [5]) amounted to 1.07.

For `NOCC(=O)O` (library stock concentration (final ~1000-fold dilution): 10 mM), the “IRF Lucia reporter activity” value in assay [1] (setting [4]) was 1.05; in assay [1] (agonist: LPS (TLR4) 0.1 ug/mL), 1.4.

In the case of `COc1cc2ncnc(Nc3ccc(O)cc3)c2cc1OC` (library stock concentration (final ~1000-fold dilution): 10 mM), the “IRF Lucia reporter activity” value is 0.475 in assay [1] (setting [4]) and 0.177 in assay [1] (agonist: LPS (TLR4) 0.1 ug/mL).

`COc1cc2ncnc(Nc3ccc(O)cc3)c2cc1OC`: the “IRF Lucia reporter activity” value in assay [2] (setting [5]) came to 0.582.

Turning to `CS(=O)(=O)O.N#CC1(c2ccc(NC(=O)c3cccnc3NCc3ccncc3)cc2)CCCC1` (library stock concentration (final ~1000-fold dilution): 10 mM), the “IRF Lucia reporter activity” value was determined as 0.204 in assay [1] (setting [4]) and 0.822 in assay [1] (agonist: LPS (TLR4) 0.1 ug/mL).

In the case of `CS(=O)(=O)O.N#CC1(c2ccc(NC(=O)c3cccnc3NCc3ccncc3)cc2)CCCC1`, in assay [2] (setting [5]), the “IRF Lucia reporter activity” value was determined as 0.927.

With `CCC(C)C(=O)OC1CCC=C2C=CC(C)C(CCC3CC(O)CC(=O)O3)C21` (stereo not given), the “IRF Lucia reporter activity” value in assay [2] (setting [5]) worked out at 0.761.

For the molecule `CCC(C)C(=O)OC1CCC=C2C=CC(C)C(CCC3CC(O)CC(=O)O3)C21` (stereo not given) (library stock concentration (final ~1000-fold dilution): 10 mM), the “IRF Lucia reporter activity” value in assay [1] (setting [4]) is 0.46; in assay [1] (agonist: LPS (TLR4) 0.1 ug/mL) it was 0.787.

For the molecule `CCN(CC)C(=O)Nc1ccc(OCC(O)CNC(C)(C)C)c(C(C)=O)c1.Cl` (stereo not given), the “IRF Lucia reporter activity” value in assay [2] (setting [5]) was 0.256.

`CCN(CC)C(=O)Nc1ccc(OCC(O)CNC(C)(C)C)c(C(C)=O)c1.Cl` (stereo not given) (library stock concentration (final ~1000-fold dilution): 10 mM): the “IRF Lucia reporter activity” value was determined as 0.652 in assay [1] (setting [4]) and 0.217 in assay [1] (agonist: LPS (TLR4) 0.1 ug/mL).

Consider `CC12CC(O)C3CC1(O[C@@H]1O[C@H](CO)[C@@H](O)[C@H](O)[C@H]1O)C3(COC(=O)c1ccccc1)C(=O)O2` (stereo not given in full) (library stock concentration (final ~1000-fold dilution): 10 mM), for which the “IRF Lucia reporter activity” value in assay [1] (setting [4]) came to 0.973; in assay [1] (agonist: LPS (TLR4) 0.1 ug/mL), 0.864.

`COC1/C=C\C=C(/C)C(=O)NC2=CC(=O)C(NCCN(C)C)=C(CC(C)CC(OC)C(O)C(C)/C=C(\C)C1OC(N)=O)C2=O.Cl` (stereo not given) (library stock concentration (final ~1000-fold dilution): 10 mM): the figures for the “IRF Lucia reporter activity” value in assay [1] (setting [4]) and in assay [1] (agonist: LPS (TLR4) 0.1 ug/mL) were 0.0852 and 0.273, respectively.

Consider `COC1/C=C\C=C(/C)C(=O)NC2=CC(=O)C(NCCN(C)C)=C(CC(C)CC(OC)C(O)C(C)/C=C(\C)C1OC(N)=O)C2=O.Cl` (stereo not given), for which the “IRF Lucia reporter activity” value in assay [2] (setting [5]) stood at 0.306.

Consider `CCCCCCCCCCCCCCCCCC[N+](C)(C)C` (library stock concentration (final ~1000-fold dilution): 10 mM), for which the “IRF Lucia reporter activity” value in assay [3] (setting [4]) turned out to be 0.119; in assay [3] (agonist: LPS (TLR4) 0.1 ug/mL), 0.28.

Regarding `CCCCCCCCCCCCCCCCCC[N+](C)(C)C`, in assay [2] (cytotoxicity flag (confluency mask): cytotoxic (confluency <70% of control)), the “IRF Lucia reporter activity” value came out at 0.342.

In the case of `Cn1cc(-c2ccc3nnc(C(F)(F)c4ccc5ncccc5c4)n3n2)cn1` (library stock concentration (final ~1000-fold dilution): 10 mM), the “IRF Lucia reporter activity” value in assay [1] (setting [4]) and in assay [1] (agonist: LPS (TLR4) 0.1 ug/mL) was 0.756 throughout.

`Cn1cc(-c2ccc3nnc(C(F)(F)c4ccc5ncccc5c4)n3n2)cn1`: in assay [2] (setting [5]), the “IRF Lucia reporter activity” value came out at 0.92.
